# Whole data set: some 33,000 sequences, median “E-score (-0.5 to 0.5)” near -0.056, cut for the highest 2% near 0.38. The list shows a part of the results.
# Target: Stb4 (UniProt P50104)
# Test: PBM E-score (8-mer binding enrichment) (E-score (-0.5 to 0.5)); higher = stronger / more preferred TF binding; most listed sequences are background and not binding sites
# Settings: protein concentration: 200 nM; construct: GST-DNA-binding domain
# Procedure, shortened: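 The E-score, a modified Wilcoxon-Mann-Whitney statistic, was computed by the Universal PBM Analysis Suite for every ungapped eight-base word pooled with its reverse complement. Scans behind it were normalised with masliner after bound GST-tagged yeast transcription factors were detected with fluorescent anti-GST. The proteins, at about 100-200 nM, had been applied to universal all-10-mer Agilent arrays made double-stranded by primer extension.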
row,Sequence,PBM E-score
1,AATAACAA,-0.02
2,ATTGACCG,0.0389
3,CCCAGATA,-0.158
4,ATCTTATA,-0.0751
5,ACCATTCA,-0.293
6,ACAGCCGC,0.105
7,CAACGCGG,0.16
8,TCGACACA,-0.0789
9,ATAGAGTA,-0.167
10,GGTGCGAA,0.0551
11,GGTTCAAC,-0.0243
12,AAGATAGT,0.0875
13,GAACACGA,-0.0146
14,ACAAGCCG,0.132
15,GGGGCGTA,-0.0369
16,CACTACCG,0.0779
17,CCGGCTGA,0.265
18,ACTTTGTC,-0.151
19,CCAGCTCA,-0.219
20,ATGACCCA,-0.283
21,CCCATAGC,-0.0731
22,CTATATTA,-0.0981
23,ATTGTAGG,-0.0958
24,CCCTGGAG,-0.316
25,AGGGGACA,-0.0901

row,Sequence,PBM E-score
1,CCAAATTC,-0.00753
2,CCCCCGTA,-0.267
3,GTCGGGAA,0.377
4,TACTTCAA,-0.1
5,CTACTGAA,-0.152
6,CGGGCAAG,0.106
7,CCTACCTC,-0.136
8,CATGTCTC,0.106
9,CAAGGTAC,-0.233
10,CGTCTGAG,-0.171
11,ATAATTGC,-0.0283
12,CAACGTAA,-0.32
13,CGATAAGA,0.0405
14,AGAGTTGG,-0.25
15,GGTGGCAA,-0.193
16,ATACGTAC,-0.0684
17,ATTACAGA,0.0536
18,AAGAAGTG,0.107
19,CGTTCATC,0.0906
20,GACTTCTA,-0.19
21,AGGCAGAC,-0.1
22,ACTCGACT,-0.293
23,CCTAAGTC,-0.0864
24,AGTGAAAT,-0.152
25,GAGCCCAC,0.0434

row,Sequence,PBM E-score
1,CCTGAACA,-0.0529
2,ACGGTGGA,-0.132
3,CTGGCCTC,0.0578
4,CCTCTAAG,-0.248
5,GGGCGTAA,0.0334
6,CCCTGAGC,-0.0704
7,ACTTCACC,0.0769
8,AGCTTATA,-0.114
9,CATTGGAA,-0.16
10,ACCATCAG,0.0151
11,CAAAGTAG,-0.128
12,AATCTCCA,-0.184
13,CGGGGGAC,0.114
14,ACTATAGG,-0.264
15,GGCCTCTA,-0.341
16,GAGATAGA,-0.0353
17,TCCATGGA,0.0285
18,AAATGCAC,0.121
19,TATGCCCA,-0.104
20,ATCAAGTG,-0.117
21,TAGTGTAA,-0.149
22,CCATATTA,-0.136
23,AACTTCAG,-0.0741
24,AGGAGTTC,-0.132
25,GTGATTGA,-0.028

row,Sequence,PBM E-score
1,CGCAAACC,-0.0671
2,GGTTGAAA,0.0435
3,AAGTGTAC,-0.141
4,AAACCCGA,0.403
5,ACCTGCTG,-0.0476
6,AAGGAAGA,-0.126
7,CCCATGTA,-0.099
8,CGCGAGAC,-0.0463
9,AGGCATGC,-0.033
10,ATTGAGGA,-0.116
11,AAGGGTGG,-0.192
12,AGCCACCA,-0.194
13,ATATATAG,0.0925
14,TCTAATAA,-0.311
15,ACGTATGC,-0.129
16,ACCCTGAA,-0.204
17,AGCAACGA,-0.0782
18,ATTCATGC,-0.0375
19,GTTCGCTA,-0.082
20,GGCAAGAA,0.149
21,GGGGCACA,-0.0254
22,GAGCAGGA,-0.11
23,GATACGCA,-0.133
24,GTTCTTTA,-0.0245
25,TAAGAACA,0.0187

row,Sequence,PBM E-score
1,ACACAGTG,-0.0901
2,GATCAACC,0.0776
3,GGCGATAC,0.00552
4,TCGCAAAA,-0.122
5,TCGCTCAA,-0.0412
6,CTGGGATA,-0.0428
7,AATGATGA,-0.0926
8,TCGTTTAA,-0.196
9,AGAATTTA,-0.0683
10,TCGCGACA,-0.193
11,AAGCATGA,-0.151
12,CTTACCGA,0.393
13,CCAGGGGA,-0.0484
14,CCAGTCTC,-0.129
15,GCCAAGCC,-0.0262
16,CCACCACG,-0.109
17,AACCTCAC,-0.155
18,ATATCATC,-0.132
19,CTAAACCA,-0.0531
20,AATGTGAA,-0.11
21,ACGGATTA,0.145
22,ACTGCGCT,-0.185
23,TCGTACCA,-0.0932
24,AAAGCCTG,-0.151
25,GCGTTGCA,-0.051

row,Sequence,PBM E-score
1,GCCTCGAA,-0.0521
2,TAGGCCTA,-0.384
3,ATAGGGAC,-0.0117
4,ACTCTGGA,-0.11
5,CTGAATTC,-0.111
6,CCTAGAAG,-0.144
7,ATGTTCCA,-0.0991
8,AGGCTTCA,-0.112
9,ACTGGAGG,-0.0802
10,AGATAGTG,-0.0913
11,GCTACCAA,-0.00579
12,GCCGCGCC,0.0907
13,AATGATTG,-0.164
14,AGGTTCGA,-0.0841
15,ACAAAGCC,0.0806
16,TAAACACA,-0.179
17,AGGATCCG,0.395
18,ATGTCAAC,0.0147
19,AGTCGGAA,0.451
20,TCCAGCAA,-0.345
21,GGGTGACA,0.156
22,CGGTTTAG,0.239
23,AGCAGAAT,0.00856
24,ATCACGTC,0.0144
25,AGACTGTA,-0.207

row,Sequence,PBM E-score
1,AATGGTGG,-0.0674
2,ACTGTCGG,0.279
3,AATGAAAA,0.0769
4,TCCTGAAA,-0.044
5,AGGTTATC,-0.0973
6,CCGTCCAC,0.143
7,CTACGATA,-0.175
8,GTGGCGCA,-0.22
9,GCTCTAAA,-0.222
10,ATAAAAGA,-0.059
11,CCTATTCC,0.124
12,GCGTCGGA,0.449
13,AGATCGGG,0.28
14,CAAGATTC,-0.0361
15,ACGCTTGG,-0.214
16,CTGCTTGA,-0.213
17,AGATAGAC,-0.188
18,GAATCAGA,0.0234
19,ATATATGC,0.13
20,AGCTAACT,0.0148
21,ACAGTATC,-0.119
22,GACGGACC,0.12

# From the supplement of paper PMC3334620
